Source: the supplement of paper PMC11417369
This is one part of the list.

tested on: PfHDP1 homeodomain (GST-tagged); assay: gcPBM binding intensity (ln(normalized median fluorescence intensity)); higher = stronger DNA binding
Summary of the method: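 DNA-binding domains from P. falciparum, fused to GST and produced in E. coli, were put on an Agilent 4 × 180k double-stranded probe array for 1 h in 1× PBS holding 1% milk, 0.2 mg/ml BSA, 0.5% salmon testes DNA and 0.03% Triton X-100. Probes were primer-extended, 36 bp long and drawn from intergenic genomic regions, with negative controls included. After Alexa488 anti-GST antibody detection and a 488 nm scan, binding intensity was set as the highest Masliner-normalised natural-log median intensity across replicate spots of either probe orientation.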

In order of rising “gcPBM binding intensity (ln)” value:
1. AAAGTAAAAAAAAAAACATGCATACGCTAATTTTTA [TGCATGCA_site301]  5.76
2. TTAAAGAATATTTTCACACATAAAAATTTTAATTTA [CACACA_site4290]  5.93
3. TTTTTAAATAACCTATATATTATTATGAAACATAAA [CACACA_negctrl_site916]  6
4. TTTTTTTTTAAAGAAAATAAAAATATGTACTTGACA [CACACA_negctrl_site1113]  6.05
5. CATAAAAATGTATCAAGTACACATTTATTTATCCAT [XGTACX_site152]  6.06
6. TATATTAATTCGTTTTGTACACACATAATGAATAAT [XGTACX_site4618]  6.14
7. TTTTTTTTTTTTTAAATAATCATACATGTGAAATTG [GTGCAC_negctrl_site328]  6.15
8. TATAACATATTTATATATGACATTATCTATTCATTT [CACACA_negctrl_site864]  6.16
9. GAAAATAATGTTACATGTACGAATATGTAACTATTG [XGTACX_site6833]  6.16
10. TTTTGACATTAACTTAAAAAATAAATAATTATAAAA [XGTACX_negctrl_site552]  6.17
11. ATTTTTTTATAAAATTTTTTATATATTAAATATTAT [CACACA_negctrl_site135]  6.22
12. ATTTTAATACTTTTATATTAAATGTAGCACATCATA [XGTACX_negctrl_site273]  6.26
13. AAAAAATAAGATTGTACACACATAAATTCTTTGTCA [CACACA_site2089]  6.27
14. TTAATATTGTATCCAAGTACACAAATTATTATATTT [XGTACX_site8067]  6.31
15. GTATAATATATTTATAGTACATAATTATTTATAAAT [XGTACX_site1826]  6.31
16. AAACAATTTTTATTTTGTACATAACAATATATTTAT [XGTACX_site1375]  6.31
17. TTTTCTTAATATTTATGTATATATATAATATGATAT [TGCATGCA_negctrl_site572]  6.32
18. CCCGTAAATACAAAAAGTACAAAAGTTCATCTTATA [XGTACX_site1154]  6.35
19. ATAAAAAAATATGTAAACATATATATGTATTTATGT [CACACA_negctrl_site1517]  6.35
20. GATATACAATTTAAGTGTACTATAATAAAATATATA [XGTACX_site3013]  6.36
21. TTATTTATTTAGTAGTGTACTTTTTATATTTATAAT [XGTACX_site5978]  6.36
22. TCTAACATATCTTTAATACACACTTAAAAAAGTACT [CACACA_site652]  6.38
23. CGTTCTATTTAGATATGTACTTAAATATATGATCAT [XGTACX_site2936]  6.39
24. AAATATAAGTTTTATTGTACATTATATAGCATATTT [XGTACX_site6618]  6.39
25. GAGTAAAACAAATATACACACCATAAAGTTATAAAA [CACACA_site5008]  6.42
26. TATGTCTTGTTGTAAAATATTTATTAACAAATTGGC [CACACA_negctrl_site1452]  6.44
27. TTTAAAATATTGTATTGTACGCAATAAAAAATACCA [XGTACX_site182]  6.45
28. TAATAATAATATAAAATACACACCTATTATTTTTAC [CACACA_site4003]  6.47
29. AATATATATGGACATGCATGGACATAATAATCTATT [TGCATGCA_site838]  6.47
30. GAATATAAACATATTACACACATCTATCTGTACATT [CACACA_site5114]  6.5
31. ATATATTTATACATTTGTACATATACATATTTCTGA [XGTACX_site3982]  6.5
32. TTTGTAATAACATATGCATGTTCAAAAAATAAAATA [TGCATGCA_site817]  6.51
33. TTTTTATATTTTATTAGTACTTATTATATATATAAT [XGTACX_site4900]  6.51
34. AAATTTATATAAAACAGTACAATTAAAAAAAAAATA [XGTACX_site8015]  6.52
35. AATTTAAATTCATCACGTACATACGTGAATATACAC [XGTACX_site5220]  6.56
36. GTATAACACAAGTGAAGTACAGGGGTAAACATTTAT [XGTACX_site3203]  6.56
37. CAATATTATTATATTTGTACACATGCGTATTTTTTA [XGTACX_site4154]  6.57
38. AAAATTGTGCTTTCACGGACACAAGATCGAAATAGA [XGTACX_site4068]  6.61
39. AATATTATTATCTTACCACACACAATCTACGAAAAG [CACACA_site8006]  6.62
40. ACATTAATATAAAGCACACATATATATAATATATAT [CACACA_site508]  6.64
41. ACTTTTTAATATTTTAGTACACAGTAATTCTTACTA [XGTACX_site1425]  6.65
42. TTTATAAATTGACACACACACATGTGAACATAAAAA [CACACA_site6978]  6.65
43. TTATAAAACACAAAATGTACAAAAAATTATAATTAA [XGTACX_site6859]  6.67
44. TTAATAAAAATATATCCACACACATATATATATATG [CACACA_site8091]  6.73
45. AATACATATATATATTGTACATATAGGGAAAAATTA [XGTACX_site2275]  6.75
46. TGGTATCAAAAGAATACACACACACCGACATATATA [CACACA_site9265]  6.75
47. AATCCATTCTATTTTTTACACACGTATGTAAATATT [CACACA_site8860]  6.75
48. TGAGAAAGCGCATATTGTACTATATATTTTAACCAC [XGTACX_site4098]  6.76
49. ATTTATCTATATATATGTACATATTATTTTTGTGGT [XGTACX_site7390]  6.8
50. TATATTAAAAAAAAATGTACATATATATAATATATA [XGTACX_site1935]  6.8
51. GTGGGAAACATAAACACACACAAAAAGAAAAAATAG [CACACA_site4810]  6.81
52. TATATAAATGGACACACACACACCTTATAATTATTA [CACACA_site6093]  6.85
53. CATTTTTTGCTTTCAACACACATACAATATAAATAA [CACACA_site7858]  6.89
54. ATGTAACACATATTTGGTACAGATAGATAAAAGTAT [XGTACX_site8291]  6.9
55. ATTGATTTTTAATATACACACATAAGTACCACAAAA [CACACA_site339]  6.91
56. ACGTTTTATTTTTATTGTACTCACATTGAAATGAAT [XGTACX_site6094]  6.93
57. TTATTTGTTTAATATGCATGCTAAAAGGGTTGATGT [TGCATGCA_site581]  6.94
58. ACATATTATAACATATGTACATATATATATATATAA [XGTACX_site5567]  6.95
59. TACAGATAAAAGTACACACACACACCGATATATATA [CACACA_site4675]  6.96
60. TAATAAATCCTATATAGTACATATATGCAAGTATGT [XGTACX_site3955]  6.97
61. ATTTTTATTTTCTTTACACACCACATAACTTTTTTT [CACACA_site7826]  7.03
62. TTAAAATAAAGAGCAGTGCGCATATTTTGTTATTAT [GTGCAC_site9753]  7.08
63. GATATGTTAAATATATGTACATATATAAACCCAAAC [XGTACX_site6601]  7.08
64. TATGTAATAAATAGTACACACACACCGATATATATA [CACACA_site8389]  7.13
65. GAAACGTTTTTGAGTAGTACACACACAATAAGGATG [XGTACX_site6809]  7.19
66. AAAAATATAAACTGCACACACAAAAAAAAAAGAGAA [CACACA_site1367]  7.57
67. TATAATAATATTATAGTGCATATTATTTATATATAA [GTGCAC_site9820]  7.97
68. AAAAAGTGATTAAAATGTACAAAATGCATAAAAGAA [XGTACX_site6625]  8.15
69. AAATACATATATACATGTACATAAATATATATATAT [XGTACX_site5367]  8.77
70. TATATATATATATTCACACATAAAAATAAAATAAAA [CACACA_site4774]  8.8
71. ATTAAATAAAATCATGCACACAATATATATTTTAAG [CACACA_site2495]  8.9
72. TATCATATAAAACATGCACACATATGTACTCTTATA [CACACA_site9249]  9.14
73. ATATATATATATGTGTGTACTTATTTATTTATTTGT [XGTACX_site549]  9.15
74. TAAGGTAGTTCTGTATCACACACATATATATATATA [CACACA_site8693]  9.16
75. ATATATATATATATATGTACATATATCTACATATAT [XGTACX_site7588]  9.2
76. AATATAAAAATGCACACACACAAAAAAAAAAAAAAA [CACACA_site6546]  9.21
77. AAAAAAAAAAAATACACACACATATATATATATATA [CACACA_site2224]  9.24
78. TTTAATATGAATTTATGTACATATATATATATATAT [XGTACX_site6337]  9.27
79. ATCATTTATTTTTTAAAAGTATATATATATATATAT [CACACA_negctrl_site220]  9.37
80. ATAGATATACATATCACACATATATATATATATATA [CACACA_site4985]  9.4
81. ATATAAATATAAACATGTACATATATATATATATAT [XGTACX_site2824]  9.44
82. ATAAAAAAATATAAATGTACATATATATATATATAT [XGTACX_site5620]  9.45
83. CATGATATATAAATATGTACATATATATATATATAT [XGTACX_site1760]  9.48
84. TATATATATATAAGTGCACACTGAACCAAGAAAATT [CACACA_site5637]  9.8
85. ATTTTTTTTGTAAAAGTGCATATATATATATATATA  9.84
86. AATGTGTTCATATATGCACACGCATATATATTATTG [CACACA_site9274]  9.95
87. ATAAGCATCTTTTGTGTGCACATAACAAAAAAAAAA  10.2
88. ATTTTACATATTTGCACACATATATTTATATACATA [CACACA_site854]  10.6
89. ATATTATGTGATTGTGCACACTGGAGATTTTTTTTA [CACACA_site1453]  11.2
